# Reference: PubChem BioAssay AID1508624 (National Center for Advancing Translational Sciences (NCATS), 2021)
# In all, about 48,000 compounds went through this assay and about 120 (0.25%) were called active. Inconclusive results (about 4%) are left out. Calls follow the shape of the dose curve; as a rule, active = well fitted activation curve with a large enough effect; inconclusive = small, poorly fitted or top-dose-only effect, or another doubt; inactive = no such curve, though single readings can be large or run the other way. Some of the results follow.
# Assay: Primary qHTS for Identification of Small Molecule Activators of Huntingtin-Antisense Promoter Activity; also: nearly all actives have a fitted effect of over 55% in size
# Settings: HEK293 HTT-AS promoter firefly luciferase reporter (activity 0% = vehicle and -100% = no light), 24 h; series mostly up to 57.5 µM; activity change, positive = activation: at the top concentration
# Outline: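 Luminescence was read after Dual-Glo reagent and a 10 min room-temperature incubation. Values were normalized to vehicle (0% activity) and zero RLU (-100% activity). Reporter HEK293 cells had been exposed to compounds (up to 57.5 uM final) for 24 h.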
row,Compound,"activity change, positive = activation"
1,CC(C)COc1ccc(C(=O)N(Cc2cccc(F)c2)C2CCS(=O)(=O)C2)cc1 (configuration not stated),inactive: -15.1%
2,Cc1ccccc1C(=O)Nc1ccc(C(=O)N2CCCC(O)c3cc(Cl)ccc32)c(C)c1 (configuration not stated),inactive: -17.8%
3,CCOC(=O)c1cnc2ccc(OCC)cc2c1NCCc1ccc(OC)c(OC)c1,inactive: -13.4%
4,CCCn1c(=N)c(C(=O)NC2CCCCC2)cc2c(=O)n3cc(C)ccc3nc21,inactive: -6.6%
5,CCN1CCc2c(sc(-n3cccc3)c2C(CCC(C)C)NC(=O)NCCC(=O)OC)C1 (configuration not stated),inactive: -14.2%
6,CC[N+](CC)(CC)CCOc1ccc(/C=C/c2ccccc2)cc1,inactive: -33.9%
7,CCc1cccc(C)c1NC(=O)C(NS(=O)(=O)c1ccc2c(c1)CCC(=O)N2)c1ccccc1 (configuration not stated),inactive: -17.2%
8,CCCn1c2ccccc2c2cnn(CC(=O)NCCCOC(C)C)c(=O)c21,inactive: -8.7%
9,Cc1ccc(NS(=O)(=O)c2c(C)nc3sc(C)c(C)n3c2=O)cc1F,inactive: -37.3%
10,Cc1ccc2c(c1)-c1c(cnc3cc(-c4ccc(Cl)cc4)nn13)CO2,inactive: 4.25%
11,Cc1ccc2onc(CNC(=O)N3CCN(c4cc(Cl)ccc4C)CC3)c2c1,inactive: -34.1%
12,CC(CNC(=O)c1cc2cc(S(=O)(=O)N3CCCCC3)ccc2n1C)c1ccccc1 (configuration not stated),inactive: -39.5%
13,Cc1ccc(CCNC(=O)c2sc3nc4n(c(=O)c3c2C)CCCC4)cc1,inactive: -16.6%
14,COc1ccccc1CNC(=O)c1ccc2c(c1)nc(C)n2-c1cccc(C)c1,inactive: -14.5%
15,COc1ccc(C(C)=O)cc1CSc1nc(NCc2ccccc2)c2ccccc2n1,inactive: -37%
16,O=C(O)c1ccc(OCCCOc2ccc(C(=O)O)cc2)cc1,inactive: 2.31%
17,COc1ccc(NC(=O)C(C)N2Cc3ccccc3C2=O)cc1OC (configuration not stated),inactive: -9.88%
18,Cc1ccc2c(c1)c(=O)c1ccccc1n2CCCC(=O)Nc1ccc(C)c(C)c1,inactive: -46.5%
19,CC(C)OC(=O)c1ccc(NC(=O)CSc2nc(-c3cccs3)cc(C(F)(F)F)n2)cc1,inactive: -29.9%
20,Cc1ccc(COC(=O)c2[nH]c3c(c2C)C(=O)CC(c2ccc(Cl)cc2)C3)cc1 (configuration not stated),inactive: -3.35%
21,Cc1cccc(CN2C(=O)c3ccccc3S(=O)(=O)c3ccc(C(=O)OCC4CCCO4)cc32)c1 (configuration not stated),inactive: -6.81%

row,Compound,"activity change, positive = activation"
1,CCc1ccc(CNC(=O)C2COc3ccccc3C2)cc1 (configuration not stated),inactive: 9.83%
2,CCOC(=O)c1cc(S(=O)(=O)N2CCN(c3ccccc3OC)CC2)[nH]n1,inactive: -4.75%
3,Cc1ccc(N2CC(NC(=O)C3CCCCC3)CC2=O)cc1 (configuration not stated),inactive: -15.2%
4,COc1ccc(NC(=O)CSCc2cc(=O)c3cc(Cl)ccc3[nH]2)cc1,inactive: -18.9%
5,CCc1ccc(C(=O)c2cn(CC(=O)Nc3ccc(F)cc3)c3ccc(F)cc3c2=O)cc1,inactive: -29.8%
6,CCn1c(CNC(=O)c2ccc(OC)cc2)nnc1SCC(=O)Nc1ccc(F)cc1,inactive: -5.2%
7,CCOc1ccc(C2CC(=O)Nc3c2c(=O)[nH]c2ncnn32)cc1 (configuration not stated),inactive: -13.5%
8,Cc1cccc(C(=O)Nc2cc(-c3ccccc3F)nn2-c2ccccc2)c1,inactive: -12.4%
9,Cc1cccc(C)c1NC(=O)CC12CCCN1CCC2,inactive: -4.04%
10,COc1cc(NS(=O)(=O)c2cc3[nH]c(=O)[nH]c3cc2C)cc(OC)c1OC,inactive: -0.586%
11,NC(=O)c1ccc(-c2nc(-c3ccc4c(c3)OCCO4)c(-c3ccccn3)[nH]2)cc1,inactive: -14.9%
12,O=C(Nc1cccc(NC(=O)c2ccc(Br)cc2)c1)c1ccccc1,inactive: -3.08%
13,CCCn1c(NCc2ccccc2F)nc2ccccc21,inactive: 8.26%
14,COc1ccc2c(c1)CC(NC(=O)Nc1ccc(Br)c(C)c1)CO2 (configuration not stated),inactive: -7.52%
15,CCC(=O)N1c2ccc(S(=O)(=O)CCC(=O)N3CCN(c4ccc(F)cc4)CC3)cc2CC1C (configuration not stated),inactive: -25.2%
16,COc1ccc(-c2nnc(SCC(=O)Oc3cc(C)ccc3C)o2)cc1,inactive: -24.7%
17,CCOC(=O)c1cc2c(=O)n3ccccc3nc2n(CC2CCCO2)c1=NC(=O)c1ccc(F)cc1 (configuration not stated),inactive: 0%
18,O=C(NCc1cccc(F)c1)c1ccc2nc(CCc3ccccc3)oc2c1,inactive: 23.7%
19,CCCCCNC(=O)c1ccc2c(=O)n(CCc3ccccc3)c(=O)[nH]c2c1,inactive: 3.54%
20,CCOC(=O)N1CCc2c(sc(NCc3cccc(F)c3)c2C(=O)Nc2ccc(OCC)cc2)C1,inactive: 8.15%
21,CCN(C(=O)c1cccn(Cc2cccc(Cl)c2)c1=O)c1ccccc1,inactive: -12.5%

row,Compound,"activity change, positive = activation"
1,Cc1ccc(-c2nc(Cn3c(SCc4ccc(F)cc4)nc4cccnc43)c(C)o2)cc1,inactive: -35.8%
2,COc1cc(C(=O)NC2CCN(C)CC2)ccc1Nc1ncc2c(n1)N(C1CCCC1)CCC(=O)N2C(C)C,inactive: -24.4%
3,COc1ccc(C(=O)Nc2nonc2-c2ccc(OC)c(OC)c2)cc1Cl,inactive: -37.1%
4,CCOc1ccc(NC(=O)c2ccc3nc(C(C)C)oc3c2)cc1,inactive: -21.4%
5,COc1ccc(Cn2c(C(=O)O)c(CNCc3ccc(C)o3)c3ccc(OC)cc32)cc1,inactive: -22.2%
6,CCc1cccc(NC(=O)Cn2nc(C)c3sc4ccccc4c3c2=O)c1,inactive: 13.7%
7,Cc1ccc(C)c(CN2C(=O)CSc3ccc(C(=O)NCc4ccccc4)cc32)c1,inactive: -28.9%
8,COc1ccccc1OC(C)C(=O)N1CCC(c2nc3ccccc3s2)CC1 (configuration not stated),inactive: -16.9%
9,COc1ccc(Cn2c(=O)c3ccccc3n3c(-c4ccc(C)cc4)nnc23)cc1,inactive: 17.7%
10,Cc1ccc(OCc2cc(=O)n3cc(C)sc3n2)c(NC(=O)c2ccco2)c1,inactive: -12.2%
11,CC(C)c1cc2c(cc1S(=O)(=O)O)[C@@]1(C)CCC[C@@](C)(C(=O)O)[C@@H]1CC2,inactive: -1.01%
12,Cc1ccc(C)c(NC(=O)Cn2cc(S(=O)(=O)NC(C)C)c(S(=O)(=O)NC(C)C)c2)c1,inactive: -4.74%
13,COc1cc(C(=O)Nc2c(C(=O)Nc3ccccc3F)oc3ccccc23)cc(OC)c1OC,inactive: -16.1%
14,CCOC(=O)c1c(-c2ccccc2)oc2cc(Br)c(OCc3ccccc3)cc12,inactive: -12.8%
15,Cc1ccc(OCCCCn2nnc3sc4c(c3c2=O)CCC(C)C4)cc1 (configuration not stated),inactive: -12.3%
16,CCn1c(=N)c(C(=O)NC2CCCC2)cc2c(=O)n3cc(C)ccc3nc21,inactive: -13.6%
17,Cc1ccc(NC(=O)C2CCCN(S(=O)(=O)c3cccc4nsnc34)C2)c(C)c1 (configuration not stated),inactive: -13.7%
18,CCN(CC)S(=O)(=O)c1ccc2c(c1)N(CC(=O)NCCCN1CCN(c3cc(C)ccc3C)CC1)C(=O)CO2,inactive: -32.8%
19,CCOc1ccc(C(=O)NCCc2csc(-c3cccnc3)n2)cc1,inactive: -2.44%
20,Cc1ccc(Cl)cc1Nc1nn2c(=O)c3ccc(C(=O)NC4CCC(C)CC4)cc3nc2s1 (configuration not stated),inactive: -12.3%
